Variants at the floor of the assay are shown more often than the library holds them.
B1: TPR 5TU (parent)
chain: GGAUCUUCUCGAUCUAACAAAAAAGACAAAUCUGCCACAAAGCUUGAGAGCAUCUUCGGAUGCAGAGGCGGCAGCCUUCGGUGGCGCGAUAGCGCCAACGUUCUCAACUAUGACACGCAAAACGCGUGCUCCGUUGAAUGGAGUUUAUCAUG

Variants of: B1
Test: polymerase ribozyme fitness, log enrichment relative to wild type (log ratio); higher = more active; in vitro selection for triplet polymerase activity
Summary of the method: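 One round of in vitro selection, in triplicate, was applied to PCR-built, transcribed mutant libraries of each subunit of a heterodimeric triplet polymerase ribozyme. The steps were annealing with a biotinylated primer, partner subunit and triplets, incubation frozen at −7 °C, gel excision of extended constructs, streptavidin-bead capture and RT-PCR. Fitness is the logarithm, base 2, of genotype enrichment over wild-type enrichment from inverse-variance-weighted replicate averages of Illumina-sequenced inputs and outputs, keeping genotypes with ≥10 input reads and ≥1 read per output.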

U4A U31C A41G A47C C57A C87G C95U U148A and U4G C75G C85A A107U U144C cannot be ordered by “polymerase ribozyme fitness (log ratio)” value: at most -4.2 for the first, at most -4.2 for the second.

U4A C8U A24C C96U and U4C A21G G68A C85G cannot be ordered by “polymerase ribozyme fitness (log ratio)” value: at most -4.2 for the first, at most -4.2 for the second.

U4G A22C A24U A26G U78G G81C C87G and U4A A29U G46C G58C C69G C87U C118U cannot be ordered by “polymerase ribozyme fitness (log ratio)” value: at most -4.2 for the first, at most -4.2 for the second.

U4A C38A A47G G94U C118G C129A and U4G A30U C57G G58A C93U cannot be ordered by “polymerase ribozyme fitness (log ratio)” value: at most -4.2 for the first, at most -4.2 for the second.

U4C U15A G68U C93G and U4G C18G A40G G42C C57U G59A C93G cannot be ordered by “polymerase ribozyme fitness (log ratio)” value: at most -4.2 for the first, at most -4.2 for the second.

U4G C14A A26C C27U C99U U104G and U4A A19U A30U C75U G94C cannot be ordered by “polymerase ribozyme fitness (log ratio)” value: at most -4.2 for the first, at most -4.2 for the second.

U4G A19G A73C C87U A138U and U4A C10A A40U C57A G71A G86U A107G cannot be ordered by “polymerase ribozyme fitness (log ratio)” value: at most -4.2 for the first, at most -4.2 for the second.

U4C U7G A19U A20G G34U C96U G100A A110G G140C and U4A A21U G34U C75G U90A C95G C103A C131G U134C A137U cannot be ordered by “polymerase ribozyme fitness (log ratio)” value: at most -4.2 for the first, at most -4.2 for the second.

U4C C5U A39U G50C G67A A73G C85A G94A and U4G A23U C75U A97G cannot be ordered by “polymerase ribozyme fitness (log ratio)” value: at most -4.2 for the first, at most -4.2 for the second.

C5A A16U C36G C43U U56A G94C C103U C105G C114G A119C and U4A A20G C35A U55G C72U C99U A120U U146A cannot be ordered by “polymerase ribozyme fitness (log ratio)” value: at most -4.2 for the first, at most -4.2 for the second.

U4A A47G U55A A106G A113U A138G and U4G U13G C93U A120G G143A U148C cannot be ordered by “polymerase ribozyme fitness (log ratio)” value: at most -4.2 for the first, at most -4.2 for the second.

First: U4A A17G A29C G94C U102G A142U
Second: U4G U6G C85U G141A
The “polymerase ribozyme fitness (log ratio)” value of the first is lower: at most -4.2 for the first, -3.39 for the second.

C5A A24C G48U G65C C87U C99U A121G and U4A U61A A64U G65A C103A G141A U145A cannot be ordered by “polymerase ribozyme fitness (log ratio)” value: at most -4.2 for the first, at most -4.2 for the second.

Going from U4G G58A to A3U U55C G58U C85A A107G G140C, the “polymerase ribozyme fitness (log ratio)” value falls from 0.794 to at most -4.2.

First: U4G U7G C27U G50A G126C
Second: C5A A21G G88C
The “polymerase ribozyme fitness (log ratio)” value of the first is lower: at most -4.2 for the first, -4.09 for the second.

U4C C43U G92U A121G G143C and U4G U6A A22U A24G C72A A106G C123U U151A cannot be ordered by “polymerase ribozyme fitness (log ratio)” value: at most -4.2 for the first, at most -4.2 for the second.

U4C C57A C87A U146A A150C and U4C G25U U61G G86U C93U G133C cannot be ordered by “polymerase ribozyme fitness (log ratio)” value: at most -4.2 for the first, at most -4.2 for the second.

U4A C14G U56G G84C C116U and U4C U44C A60U U77G G124U A150C cannot be ordered by “polymerase ribozyme fitness (log ratio)” value: at most -4.2 for the first, at most -4.2 for the second.

Going from U4C G86A to U4C C5A A24U A41G G46C C85U C96G, the “polymerase ribozyme fitness (log ratio)” value falls from -0.918 to -3.3.

U4A C14A A22C G42A U45A C87G C103U and U4G A23C C79A G92C G100A cannot be ordered by “polymerase ribozyme fitness (log ratio)” value: at most -4.2 for the first, at most -4.2 for the second.

Going from U4G G58A C85U A115U U144G to U4C A12G C14U A40G G50A G84U U145C, the “polymerase ribozyme fitness (log ratio)” value falls from -2.13 to at most -4.2.

U4C A60U G74A C93U A106U A107U A150C and U4G A28C A29C C87U C116U G141A cannot be ordered by “polymerase ribozyme fitness (log ratio)” value: at most -4.2 for the first, at most -4.2 for the second.

U4G A20C C43U U55A G59U A60G C87A A121G G141C and U4G A24C C27U C43U G88U U130G cannot be ordered by “polymerase ribozyme fitness (log ratio)” value: at most -4.2 for the first, at most -4.2 for the second.

U4A C32U U61A C93A A137C and C5A A19G A24U G88U C108G cannot be ordered by “polymerase ribozyme fitness (log ratio)” value: at most -4.2 for the first, at most -4.2 for the second.

C5A A21U A28U C93G C96U A110U and U4C C5U U33A U44C A47G A60G G94U cannot be ordered by “polymerase ribozyme fitness (log ratio)” value: at most -4.2 for the first, at most -4.2 for the second.

U4A U13G C35G U55A C76A G140A and U4A U55A A64C cannot be ordered by “polymerase ribozyme fitness (log ratio)” value: at most -4.2 for the first, at most -4.2 for the second.

C5A A23U A52G and U4A A19U C27U G86A C129U G152A cannot be ordered by “polymerase ribozyme fitness (log ratio)” value: at most -4.2 for the first, at most -4.2 for the second.

U4G C5A A17C U77C C85U A121C U144A A150C and U4C C87G A107G cannot be ordered by “polymerase ribozyme fitness (log ratio)” value: at most -4.2 for the first, at most -4.2 for the second.

U4G U53C G88A A97C A121U and U4A A17C C18A A19G G59U C95G A115U C131U U139C cannot be ordered by “polymerase ribozyme fitness (log ratio)” value: at most -4.2 for the first, at most -4.2 for the second.

U4G U7C A49C C76G A91U and C5A A20C C35A G62A C76A C96G G140A G143C cannot be ordered by “polymerase ribozyme fitness (log ratio)” value: at most -4.2 for the first, at most -4.2 for the second.

U4G C131G and U4C A40G C43U C63A C87A C114A G124U cannot be ordered by “polymerase ribozyme fitness (log ratio)” value: at most -4.2 for the first, at most -4.2 for the second.

U4C A37C A40U A49G C79G C85A U127A C149A and U4C A40C G83C G112C cannot be ordered by “polymerase ribozyme fitness (log ratio)” value: at most -4.2 for the first, at most -4.2 for the second.

First: U4C A26U C69U
Second: U4A U7G G84U G92C U148G
The “polymerase ribozyme fitness (log ratio)” value of the first is higher: -2.9 for the first, at most -4.2 for the second.

C5A A12U A21G G80A G84A A91G G124U G140U and U4G A16C A28U C38U U55A C75G U111C A122U A142C cannot be ordered by “polymerase ribozyme fitness (log ratio)” value: at most -4.2 for the first, at most -4.2 for the second.

Going from U4C A28G C38U C69U C87G G133A to C5A A23G U33G A66G G83A C87U A113G G124A U127C, the “polymerase ribozyme fitness (log ratio)” value rises from at most -4.2 to -3.78.

C5A A16C G50A C76U G86C U144G and U4C U33G C36U A40C C51U C93U U134A A147C cannot be ordered by “polymerase ribozyme fitness (log ratio)” value: at most -4.2 for the first, at most -4.2 for the second.

U4G U55A C93U G136C and U4A U44A G50C G67A G92U C96G A147U cannot be ordered by “polymerase ribozyme fitness (log ratio)” value: at most -4.2 for the first, at most -4.2 for the second.

C5A A24G A47G C75G G92C A138G and U4A A40G C85G U90G C99U U109G cannot be ordered by “polymerase ribozyme fitness (log ratio)” value: at most -4.2 for the first, at most -4.2 for the second.

U4G G74A G84U U109A and U4A G50A A52U A66C C85A cannot be ordered by “polymerase ribozyme fitness (log ratio)” value: at most -4.2 for the first, at most -4.2 for the second.

Compared with U4G A24U G62U C87U A89U, C5A A17U U44A A52C C85U G92C G140U U145A is lower in “polymerase ribozyme fitness (log ratio)” value: -3.44 for the first, at most -4.2 for the second.

C5A A19U A22U C57G C85A G140U and U4A A17U A40C A52G G58A C76G C93U U127G G141A cannot be ordered by “polymerase ribozyme fitness (log ratio)” value: at most -4.2 for the first, at most -4.2 for the second.

For U4G C10A C35U G83U G88C A120C G143A, the “polymerase ribozyme fitness (log ratio)” value was -4.17.

— the RNAGym collection of RNA variant scans (doi:10.1073/pnas.2313332121)
